Reference: the supplement of paper PMC5919970
Counter-ions that a name gives are not always drawn. In all, about 2,000 compounds were measured (“fractional viability relative to vehicle”: median about 0.92, lowest 2% from about 0.11 on). Some of the results follow.

System: TYKNU
Experiment: fractional viability relative to vehicle; TYKNU is a high-grade serous ovarian cancer line; higher = less growth inhibition
Details: 72 h, genotype: OPA1 knockout (sgOPA1 #2)
In short: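 Drug treatment lasted 72 h, with cells grown at 37 °C in 5% CO2 in RPMI 1640 supplemented with 10% FBS. Beforehand, TYKNU control cells or their lentiCRISPRv2 knockout derivatives had been seeded at 500 cells per well into drug-stamped 384-well plates carrying a ~2100-compound library at 2 or 10 μM, in duplicate. Viability came from Cell Titer Glo luminescence, with averaged duplicate treatment wells normalised to duplicate control wells in the same plate position.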

Structure (SMILES)	fractional viability (2uM)	fractional viability (10uM)
O=C[C@H](O)[C@@H](O)[C@H](O)CO [Xylose]	1.16	1.08
CC(=O)O[C@]1(C(C)=O)CC[C@H]2[C@@H]3C[C@H](C)C4=CC(=O)C=C[C@]4(C)[C@@]3(F)[C@@H](O)C[C@@]21C [Fluorometholone Acetate]	0.964	1.03
COC(=O)C[C@H](NC(=O)[C@H](C)NC(=O)[C@@H](NC(=O)OCc1ccccc1)C(C)C)C(=O)CF	1.03	1.01
CC(=O)Nc1ccccc1 [Acetanilide]	0.946	0.905
O=C(/C=C/c1ccc2ccccc2n1)c1ccncc1	0.472	0.11
Cc1cc(C(N)=O)ccc1-n1c(CCC(=O)O)ccc1-c1ccc(-n2ccnc2)cc1	0.877	0.84
Clc1ccc(NN=C(c2ccccc2)c2ccccn2)nc1	0.229	0.0582
C[N+]1(C)[C@@H]2C[C@@H](OC(=O)C(O)(c3cccs3)c3cccs3)C[C@H]1[C@@H]1O[C@@H]12 [Tiotropium Bromide hydrate]	0.97	1.05
CC(C(=O)O)c1ccc2c(c1)Cc1cccnc1O2 (stereo unspecified) [Pranoprofen]	0.95	0.962
O=C(N/N=C/c1cc(O)c(O)cc1O)c1cc2ccccc2cc1O [Dyngo-4a]	1.04	1.16
C[N+]1(C)[C@@H]2CC[C@H]1C[C@@H](OC(=O)C(O)c1ccccc1)C2 (stereo partly specified) [Homatropine Methylbromide]	1.05	0.925
COC(c1ccccc1)(c1ccccc1)[C@H](Oc1nc(C)cc(C)n1)C(=O)O [Ambrisentan]	1.36	1.09
COC(=O)C1=C(C)NC(C)=C(C(=O)OCCN2CCN(C(c3ccccc3)c3ccccc3)CC2)C1c1cccc([N+](=O)[O-])c1 (stereo unspecified) [Manidipine]	1.13	0.583
COC(=O)C1=C(C)NC(C)=C(C(=O)OCCN2CCN(C(c3ccccc3)c3ccccc3)CC2)C1c1cccc([N+](=O)[O-])c1 (stereo unspecified) [Manidipine 2HCl]	1.05	0.669
CC(C)N(C[C@H]1O[C@@H](n2cnc3c(N)ncnc32)[C@H](O)[C@@H]1O)[C@H]1C[C@@H](CCc2nc3cc(C(C)(C)C)ccc3[nH]2)C1	0.944	0.718
CC(C)OC(=O)[C@H](C)N[P@](=O)(OC[C@H]1O[C@@H](n2ccc(=O)[nH]c2=O)[C@](C)(F)[C@@H]1O)Oc1ccccc1 [Sofosbuvir (PSI-7977, GS-7977)]	0.955	1.04
Nc1nc2c(ncn2[C@@H]2O[C@H](CO)[C@@H](O)[C@H]2O)c(=O)[nH]1 [Guanosine]	0.462	0.571
CC1(C)S[C@@H]2[C@H](NC(=O)[C@H](NC(=O)N3CCNC3=O)c3ccccc3)C(=O)N2[C@H]1C(=O)O [Azlocillin sodium salt]	0.997	1.01
CCn1c2ccccc2c2cc(Nc3ccnc(NCCCN4CCOCC4)n3)ccc21	0.976	0.169
O=C1[C@H](Cc2ccc(O)cc2)N2C(=O)CCN(C(=O)NCc3ccccc3)[C@H]2CN1Cc1cccc2ccccc12	0.962	0.449
CC1CC(OC(=O)C(O)c2ccccc2)CC(C)(C)C1 (stereo unspecified) [Cyclandelate]	0.868	0.791
O=C(O)c1cccnc1Nc1cccc(C(F)(F)F)c1 [Niflumic acid]	1.05	0.835

Structure (SMILES)	fractional viability (2uM)	fractional viability (10uM)
Cc1oncc1C(=O)Nc1ccc(C(F)(F)F)cc1 [Leflunomide]	0.905	0.685
CCOC(=O)[C@H](CCc1ccccc1)N[C@@H](C)C(=O)N1Cc2ccccc2C[C@H]1C(=O)O [Quinapril HCl]	0.865	0.922
CC(CCc1ccccc1)NCC(O)c1ccc(O)c(C(N)=O)c1 (stereo unspecified) [Labetalol HCl]	1.03	0.883
Cn1cc(-c2ccc3ncc(Cc4ccc5ncccc5c4)n3n2)cn1	1.09	1.16
Cc1cc(NC(=O)Nc2ccc(N(C)C)cc2)c2cc(F)cc(F)c2n1	1.08	0.956
Cc1onc(-c2c(Cl)cccc2Cl)c1C(=O)N[C@@H]1C(=O)N2[C@@H]1SC(C)(C)[C@@H]2C(=O)O [Dicloxacillin Sodium]	1.03	0.986
CN(C)/N=N/c1[nH]cnc1C(N)=O [Dacarbazine]	1.16	1.48
CC1C(=O)OC2C(O)C34C5CC(C(C)(C)C)C36C(OC(=O)C6O)OC4(C(=O)O5)C12O (stereo unspecified) [Ginkgolide B]	0.99	1.12
CCCSc1nc(N[C@@H]2C[C@H]2c2ccc(F)c(F)c2)c2nnn([C@@H]3C[C@H](OCCO)[C@@H](O)[C@H]3O)c2n1 [Ticagrelor]	1.28	1.08
C=CC(=O)Nc1cccc(Nc2nc(Nc3ccc(Oc4ccnc(C(=O)NC)c4)cc3)ncc2F)c1	1.12	0.311
C=C1C[C@@]2(O)O[C@@]3(C[C@H]2C(C)C)[C@@H](C)CC[C@@H]13 [Curcumol]	1.12	1.1
O=C(O)COCCN1CCN(C(c2ccccc2)c2ccc(Cl)cc2)CC1 (stereo unspecified) [Cetirizine DiHCl]	1.44	1.02
Cn1cc(-c2cnn3c(N)c(Br)c([C@@H]4CCCNC4)nc23)cn1	0.571	0.814
N[C@H]1C[C@@H]1c1ccc(-c2cccc(O)c2)cc1	1.18	0.857
CC(C)c1cc(-c2n[nH]c(=O)n2-c2ccc3c(ccn3C)c2)c(O)cc1O [Ganetespib (STA-9090)]	0.683	0.535
CC(=O)O[C@]1(C(C)=O)CC[C@H]2[C@@H]3C=C(Cl)C4=CC(=O)[C@@H]5C[C@@H]5[C@]4(C)[C@H]3CC[C@@]21C [Cyproterone Acetate]	1.03	0.956
COc1ccc(-c2ccc3ncc4c(c3c2)n(-c2ccc(N3CCNCC3)c(C(F)(F)F)c2)c(=O)n4C)cn1	0.111	0.0546
COc1cc2nc(N(C)CCCNC(=O)C3CCCO3)nc(N)c2cc1OC (stereo unspecified) [Alfuzosin HCl]	1.13	0.809
O=C(O)/C=C/c1ccc(O)c(O)c1 [Caffeic Acid]	0.956	0.889
CC1(C)CC(=O)c2c(C(F)(F)F)nn(-c3ccc(C(N)=O)c(N[C@H]4CC[C@H](O)CC4)c3)c2C1	0.668	0.574
CCCCc1nc2cc(/C=C/C(=O)NO)ccc2n1CCN(CC)CC [Pracinostat (SB939)]	0.301	0.172
